{"source": "patent US20220193124A1", "about": "“Therapeutic Agent for Flavivirus Infection” (NEOPHARMA JAPAN CO., LTD., priority 2019, published 2022)", "test_system": "dengue virus type-2 New Guinea C strain (DENV2 NGC)", "assay": "Inhibitory effect on dengue virus type-2 replication in Vero cells (progeny virus titer by plaque assay)", "type": "cell-based", "conditions": "for inhibitory effect on dengue virus replication (titer of progeny viruses): 5-ALA 1 mM, SFC 0.25 mM"}
{"compound": "Cl.NCC(=O)CCC(=O)O", "note": "[5-ALA, 5-aminolevulinic acid hydrochloride]", "values": [{"measurement": "inhibitory effect on dengue virus replication on Day 8", "setting": "0.2 mM, continuous treatment, Day 8, FIG. 6", "value": "decreased"}, {"measurement": "inhibitory effect on dengue virus replication", "setting": "0.2 mM, treatment for 2 days after infection (Day 2 to end of Day 4), FIG. 9", "value": "exhibited"}, {"measurement": "inhibitory effect on dengue virus replication", "setting": "0.2 mM, treatment for 4 days after infection (Day 2 to end of Day 6), FIG. 8", "value": "exhibited"}, {"measurement": "inhibitory effect on dengue virus replication", "setting": "0.2 mM, treatment for 7 days after infection (Day 2 to end of Day 8), FIG. 6", "value": "exhibited the inhibitory effect on the dengue virus replication which increased up to Day 7"}, {"measurement": "inhibitory effect on dengue virus replication, 5-ALA compared with low dose lucidone", "setting": "5-ALA 0.2 mM vs lucidone 10 μM and 2.5 μM, 7 days after infection, FIG. 19", "value": "stronger inhibitory effect on the dengue virus replication than 10 μM and 2.5 μM of lucidone"}, {"measurement": "inhibitory effect on dengue virus replication compared with ribavirin", "setting": "5-ALA 0.2 mM vs ribavirin 300 μM, 7 days after infection, FIG. 6", "value": "stronger than the effect of ribavirin (300 μM)"}, {"measurement": "inhibitory effect on dengue virus replication, treatment for 4 days and 2 days compared with 7 days", "setting": "FIG. 6, FIG. 8, FIG. 9", "value": "less inhibitory effect"}, {"measurement": "inhibitory effect on dengue virus replication when the agent was removed from the culture solution", "setting": "after removal of the agent", "value": "lost with the lapse of time"}, {"measurement": "dose-dependent inhibitory effect on dengue virus replication", "setting": "treatment after infection for 1 day (Day 2), 0.05 mM to 1 mM, FIG. 4", "value": "exhibited the dose-dependent inhibitory effect"}, {"measurement": "inhibitory effect on dengue virus replication (titer of progeny viruses)", "setting": "treatment before infection, FIG. 1", "value": "not observed"}, {"measurement": "inhibitory effect on dengue virus replication (titer of progeny viruses)", "setting": "treatment concurrently with infection for 1 day (Day 1), FIG. 2", "value": "exhibited the inhibitory effect"}, {"measurement": "inhibitory effect on dengue virus replication (titer of progeny viruses)", "setting": "treatment from one day after infection for 1 day (Day 2), FIG. 3", "value": "exhibited the inhibitory effect"}]}
{"compound": "COC1=CC(=O)C(=C(O)/C=C/c2ccccc2)C1=O", "note": "[lucidone, reference compound]", "values": [{"measurement": "inhibitory effect on dengue virus replication, lucidone compared with 5-ALA", "setting": "lucidone 40 μM vs 5-ALA 0.2 mM, 7 days after infection, FIG. 16", "value": "stronger inhibitory effect on the dengue virus replication than 0.2 mM 5-ALA"}]}
{"compound": "NC(=O)c1ncn([C@@H]2O[C@H](CO)[C@@H](O)[C@H]2O)n1", "note": "[ribavirin, reference compound]", "values": [{"measurement": "inhibitory effect on dengue virus replication under continuous treatment", "setting": "ribavirin 300 μM, 7 days after infection, FIG. 6", "value": "reduction in the inhibitory effect"}]}
